Results published in publication PMC4336329 (PLoS ONE, 2015).
In all, about 310,000 compounds went through this assay and about 2,200 (0.71%) showed an effect of 50% or more. The effect is printed as a negative number. The list shows a part of the results.

target: human ether-à-go-go-related gene (hERG) potassium channel (human, UniProt Q12809); assay: primary screen, population patch clamp on CHO cells stably expressing hERG
Sequence (Q12809 whole entry, looked up): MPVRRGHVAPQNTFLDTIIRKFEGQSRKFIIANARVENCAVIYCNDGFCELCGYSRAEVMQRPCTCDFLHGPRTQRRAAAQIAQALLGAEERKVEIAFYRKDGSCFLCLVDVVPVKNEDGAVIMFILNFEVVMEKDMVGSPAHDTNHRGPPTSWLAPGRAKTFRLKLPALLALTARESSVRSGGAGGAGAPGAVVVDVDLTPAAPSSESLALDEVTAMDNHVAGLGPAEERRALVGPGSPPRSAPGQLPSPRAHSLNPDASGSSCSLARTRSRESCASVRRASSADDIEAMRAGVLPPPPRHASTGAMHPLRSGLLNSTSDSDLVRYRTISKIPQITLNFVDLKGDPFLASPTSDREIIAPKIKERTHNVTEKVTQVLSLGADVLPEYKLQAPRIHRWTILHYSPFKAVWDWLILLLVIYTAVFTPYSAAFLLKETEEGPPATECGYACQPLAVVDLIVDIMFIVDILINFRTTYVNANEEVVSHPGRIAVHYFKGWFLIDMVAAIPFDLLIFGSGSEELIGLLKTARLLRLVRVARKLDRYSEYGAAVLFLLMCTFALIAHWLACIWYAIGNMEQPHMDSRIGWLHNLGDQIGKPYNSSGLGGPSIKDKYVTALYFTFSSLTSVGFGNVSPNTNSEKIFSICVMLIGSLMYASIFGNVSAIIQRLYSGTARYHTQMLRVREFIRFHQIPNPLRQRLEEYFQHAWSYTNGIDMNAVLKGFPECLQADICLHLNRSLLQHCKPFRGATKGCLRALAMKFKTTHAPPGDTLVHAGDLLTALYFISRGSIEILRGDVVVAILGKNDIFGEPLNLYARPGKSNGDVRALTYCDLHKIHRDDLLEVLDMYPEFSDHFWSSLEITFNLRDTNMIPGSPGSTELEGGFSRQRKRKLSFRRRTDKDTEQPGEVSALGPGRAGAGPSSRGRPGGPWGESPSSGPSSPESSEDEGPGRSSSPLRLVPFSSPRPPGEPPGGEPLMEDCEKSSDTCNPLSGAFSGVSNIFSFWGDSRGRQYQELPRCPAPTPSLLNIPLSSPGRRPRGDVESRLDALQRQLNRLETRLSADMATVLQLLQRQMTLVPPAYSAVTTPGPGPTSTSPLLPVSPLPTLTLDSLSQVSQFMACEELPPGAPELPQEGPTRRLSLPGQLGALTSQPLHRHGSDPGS

| SMILES | hERG current change (%, negative = inhibition) at 1uM [%] |
| --- | --- |
| CC1CCN(CCOCCOc2ccccc2Br)CC1 | -4.7 |
| Cc1cccc(/C=C2/Sc3ccc(C(=O)NCCN4CCCC4)cc3NC2=O)c1 | 8.58 |
| COc1ccc(CNC(=O)N2CCN(c3cccc(C)c3C)CC2)cc1OC | 12 |
| CCc1nc2ccccc2c(=O)n1-c1cccc(OC)c1 | -5.11 |
| O=Cc1c(NCCN2CCCC2)c2ccccc2[nH]c1=O | 15.1 |
| O=c1c2ccccc2nc2n1CCCCC2 | 4.51 |
| CN1CCC(=NNC(=O)CN(c2ccccc2)S(=O)(=O)c2ccccc2)CC1 | 5.15 |
| COc1ccc(-c2cc(CCCC(=O)NCCc3ccccc3)no2)cc1 | 10.6 |
| COc1ccc([C@H]2CC(=O)C=C(c3cccc(F)c3OC)C2)cc1 | 11 |
| CC(C)c1ccc(OCC(=O)Nc2ccc(S(=O)(=O)Nc3ccccn3)cc2)cc1 | 14.7 |
| CCc1c(C)nc2ncnn2c1Nc1ccc(C(C)=O)cc1 | -17.9 |
| CC(=O)N=C1C=CC(=CN(O)C(C)(C)Cc2ccccc2)C=C1 | 7.98 |
| CC(C)(C)c1ccc(OCC(=O)Nc2ccncc2)cc1 | 20.5 |
| CCOC(=O)C1=C(C)NC(C)=C(C(=O)OCC)C1c1ccccc1/C=C/C(=O)OC(C)(C)C | 15.5 |
| CN(c1ccccc1)S(=O)(=O)c1cc(C(=O)N2CCN(c3ccccn3)CC2)ccc1Cl | 16.5 |
| COc1ccc(CNC(=O)CSc2nc3[nH]ncc3c(=O)n2-c2ccccc2Br)cc1 | 17.6 |
| C/C=C(/C)C(=O)Nc1cccc(C2=NOC3(C2)C[C@H](C(N)=O)N(C(=O)c2ccc(Cl)cc2)C3)c1 (stereo partly drawn) | 1.62 |
| C=CCSc1nnc(NC(=O)c2ccc(Cl)nc2)s1 | 12.9 |
| CCN(CC)C(=O)Cn1cc(S(=O)(=O)CC(=O)Nc2ccccc2C)c2ccccc21 | 5.2 |
| COc1ccc(C(=O)N(Cc2nc(-c3ccc(C)cc3)no2)C(C)C)cc1OC | 4.05 |
| COc1ccc(NC2=C(Cl)C(=O)N(CCc3ccccc3)C2=O)cc1 | 0.884 |
| COc1ccc(CSc2ncn[nH]2)cc1[N+](=O)[O-] | 11.5 |
| CCCOc1cc(C)c(S(=O)(=O)N2CCN(C)CC2)cc1C | -2.54 |

| SMILES | hERG current change (%, negative = inhibition) at 1uM [%] |
| --- | --- |
| C(=C\CSc1nnnn1-c1ccccc1)/CSc1nnnn1-c1ccccc1 | 0.568 |
| CC(C)CCn1c(Sc2nc3ccccc3o2)nc2c1c(=O)[nH]c(=O)n2C | 4.1 |
| COC(=O)c1cc(OC)c(OC)cc1N | -0.911 |
| O=C(N/C(=C\c1ccco1)C(=O)N1CCOCC1)c1ccco1 | 15.9 |
| CCCOc1ccc(C(=O)OCCN(CC)CC)cc1N.Cl | -20.4 |
| COc1ccc(-c2cc3nnc(-c4ccccc4)nc3s2)cc1 | 15 |
| Cn1nccc1NS(=O)(=O)c1ccc(C(C)(C)C)cc1 | 17.5 |
| CC1CCN(C(=O)COC(=O)CCCN2C(=O)c3cccc4cccc(c34)C2=O)CC1 | 9.36 |
| COc1ccc(/C=C/C(=O)Nn2cnnc2)cc1 | 5.38 |
| NC(=O)c1c(NC(=O)c2ccccc2)sc2c1CCCC2 | 13.5 |
| O=C(c1cccc(F)c1)N1CCN=C1SCc1cccnc1 | 4.98 |
| Cc1ccc(S(=O)(=O)N2CCC(C(=O)OCc3ccc([N+](=O)[O-])cc3)CC2)cc1 | -1.48 |
| Cc1ccc(C)c(N(C(=O)CNC(=O)c2ccco2)C(C(=O)NCC2CCCO2)c2ccccc2)c1 (stereo not drawn) | 8 |
| NC(=O)c1ccc(NC(=O)CCN=C2NS(=O)(=O)c3ccccc32)cc1 | 22 |
| CCOc1ccccc1NC(=O)CSc1nnnn1-c1ccccc1 | -0.231 |
| O=[N+]([O-])c1cc(C(F)(F)F)ccc1NCCNC(=S)Nc1ccc(Cl)cc1 | 9.59 |
| Cc1ccc(CN2CCN(Cc3cccc4c3OCO4)CC2CCO)cc1 (stereo not drawn) | -16.1 |
| Cn1c(=O)oc2cc(S(=O)(=O)N3CCC(C(=O)NCCc4ccccc4)CC3)ccc21 | 5.13 |
| CCN1CCN(CC(=O)Nc2ccc(S(=O)(=O)N3C(C)CCCC3C)cc2)CC1 (stereo not drawn) | 2.03 |
| C/C(CCc1ccccc1)=N/NC(=O)C(=O)NCc1ccccc1 | -0.221 |
| N#CCC(=O)N/N=C/c1cn(Cc2ccccc2C#N)c2ccccc12 | 17.1 |
| O=C(NNC(=O)C1CCN(c2ncccn2)CC1)c1ccccc1 | 2.04 |
| Cn1cccc1C(=O)NC(=O)COC(=O)CCNS(=O)(=O)c1cccc(C(F)(F)F)c1 | 8.49 |

| SMILES | hERG current change (%, negative = inhibition) at 1uM [%] |
| --- | --- |
| Cc1cc2c(cc1S(=O)(=O)CCC(=O)Nc1cccc(C(F)(F)F)c1)OCC(=O)N2 | -16.2 |
| Cc1ccc(NC(=S)N(CCCN2CCN(C)CC2)Cc2cccs2)cc1C | -6.58 |
| CCCC(=O)OCC(=O)Nc1ccc(OC(F)F)cc1 | 6.14 |
| CCOC(=O)C1=C(C)NC2=C(C(=O)CC(c3cccs3)C2)C1c1cccs1 (stereo not drawn) | 4.64 |
| NNc1nnc2c3cc(F)ccc3n(CCc3ccccc3)c2n1 | 11.3 |
| COc1cccc(CCNC(=O)CCc2nnc(-c3cc(C)oc3C)o2)c1 | 4.89 |
| COc1ccc(NC(=O)CSc2nccn2C)c([N+](=O)[O-])c1 | 3.85 |
| Cc1cccc(NC(=O)CN2C(=O)S/C(=C\c3cccn3-c3cccc(C(=O)O)c3)C2=O)c1 | 5.99 |
| Cc1cc(C)n(-c2nc(Nc3ccccc3C)nc(-n3nc(C)cc3C)n2)n1 | 13.3 |
| CCCNC(=O)c1ccc2c(c1)C1C3CCC(C3)C1C(c1ccccc1)N2 (stereo not drawn) | 9.15 |
| Cl.O=C(NCCCn1ccnc1)c1ccccc1F | 15.3 |
| CC(C)CN1C(=O)c2ccc(C(=O)Nc3ccccc3C(=O)O)cc2C1=O | 11.8 |
| CCCCCC(=O)C(=O)c1ccc(O)cc1O | 16.8 |
| OCCN1CCN(C(=S)c2ccc(-c3ccccc3)cc2)CC1 | 3.7 |
| COc1ccc(/C=N/n2c(C)cc(C)cc2=O)cc1 | 12.7 |
| CCn1c(=O)c(C(=O)NCc2ccccc2)c(O)c2ccccc21 | 14.1 |
| CCN1CN(Cc2ccco2)CNC1=S | 3.57 |
| Nc1c(C(=O)CSc2nnc(COc3ccc(Cl)cc3)o2)c(=O)[nH]c(=O)n1C1CC1 | 9.59 |
| CCN(CC)S(=O)(=O)c1cccc(NC(=O)COC(=O)/C=C/c2cccs2)c1 | 6.14 |
| CC(=O)N1CCN(C(=O)COc2ccc3oc4c(c3c2)CCCC4)CC1 | -10.6 |
| CCn1c(=O)c(C(=O)NCc2cccnc2)c(O)c2ccccc21 | 3.25 |
| CCn1c(SCC(=O)N2CCN(S(=O)(=O)c3ccccc3)CC2)nnc1-c1cccs1 | 3.85 |
| COCCN(CCOC)C(=O)N1CCOCC1 | 19 |

| SMILES | hERG current change (%, negative = inhibition) at 1uM [%] |
| --- | --- |
| COc1cc(OC)cc(C(=O)NCc2ccc3[nH]c(C)cc3c2)c1 | 11.1 |
| CC(=O)c1c(C)[nH]c(C(=O)NCCc2ccc(Cl)cc2)c1C | 9.56 |
| S=C(NCCc1ccc(Cl)cc1)NCc1ccco1 | 16.7 |
| COCc1cc(C)nc2sc(C(=O)Nc3ccccc3Br)c(N)c12 | 9.29 |
| N#CC1=C(N)SC(N)=C(C#N)C1c1c(Cl)cccc1Cl | 5.21 |
| O=C(CN1C(=O)c2cccc([N+](=O)[O-])c2C1=O)N1CCN(S(=O)(=O)c2ccccc2)CC1 | 6.35 |
| Cc1cc(C)c(OCCN2CCCC2)c(Cl)c1 | 1.2 |
| Cc1c(N=C/C=C/c2ccccc2)c(=O)n(-c2ccccc2)n1C | 12.9 |
| N#Cc1ccccc1-c1ccccc1C(=O)N1CCCCC1 | -3.76 |
| Cc1nc2cc(NC(=O)COc3ccc(C#N)cc3)ccc2n1-c1ccccc1 | -0.763 |
| CC(=O)Nc1cccc(NC(=O)c2ccccc2OCc2c(C)noc2C)c1 | 2.05 |
| CN(C)S(=O)(=O)c1cccc(NC(=O)CCc2c[nH]c3ccccc23)c1 | 0.382 |
| C=CCNC(=O)CC(=O)N/N=C/c1ccc(F)cc1 | 7.06 |
| CN(C)S(=O)(=O)Oc1ccccc1C(=O)Nc1ccc(F)cc1F | 10.1 |
| COc1ccc(C(=O)NCCS(=O)(=O)N2CCC3(CC2)OCCO3)cc1 | 1.46 |
| COc1ccc(-c2nnn3c2nc(NCc2ccccc2)c2ccccc23)cc1 | 9.97 |
| CCCCn1c(N)c(N(CCOC)C(=O)c2c(-c3ccccc3)noc2C)c(=O)[nH]c1=O | 13.3 |
| CCOC(=O)c1c(C)[nH]c(C(=O)CN2CC(C)OC(C)C2)c1C (stereo not drawn) | 3.13 |
| CO/N=C(\N)c1nonc1N | 4.34 |
| O=C(CCN1C(=O)/C(=C\c2ccccc2F)SC1=S)Nc1ccc(C(=O)O)c(O)c1 | 8.73 |
| CCC(C)NC(=O)CC(c1ccccc1)c1cc(C)ccc1O (stereo not drawn) | 5.59 |
